± gives the standard deviation of the averaged measurements. The list shows a part of the results.
Each sequence was assayed on PfAP2-G AP2 domain (GST-tagged) (assay: gcPBM binding intensity (ln(normalized median fluorescence intensity)); higher = stronger DNA binding).
How it was run: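 Binding of GST-tagged P. falciparum DNA-binding domains, expressed in E. coli and used at about 25 μg on average, was carried out for 1 h in 1× PBS containing 1% milk, 0.2 mg/ml BSA, 0.5% salmon testes DNA and 0.03% Triton X-100. The target was an Agilent 4 × 180k array of primer-extended double-stranded 36-bp intergenic genomic probes plus negative controls, read with Alexa488 anti-GST antibody at 488 nm. Binding intensity is the highest Masliner-normalised natural-log median intensity across replicate spots of either probe orientation.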

Point of comparison: “TTAACTTCTTTAAAATGTACATATATTAAATAATAA [XGTACX_site3391]”, “gcPBM binding intensity (ln)” value 11 ± 0.59. Against it:
- TTTTTTTTTTTTGAAGTGCATGTTACGATGAACAAA [GTGCAC_site9451] — within error, 10.1 ± 0.54
- CTAAAAAGAGAAGTGTGTCCTCAAATTAATATAATT [XGTACX_site1057] — within error, 11.1 ± 0.64
- TCTTATATAACGAAAGTAAAATAATATGCTAAGCAT [CACACA_negctrl_site668] — lower, 9.59 ± 0.18
- ATAAATAATTTATTCACACATACAAAAGTTTACAAA [CACACA_site5666] — lower, 10.02 ± 0.092
- TTATTAAATTCTTTATTTAGCATATACAATAAAAGA [CACACA_negctrl_site1420] — lower, 9.72 ± 0.15
- AAAATAGAGTTGAATGCACACATACAAATTTTTAGG [CACACA_site9188] — lower, 9.985 ± 0.064
- TATTATATTATACATACACACCCATATAATATGTTT [CACACA_site8191] — lower, 10.12 ± 0.035
- ATTGTTTTGTAATATGAAAAAATTGTGTAATGTGTC [CACACA_negctrl_site1510] — lower, 10.2 ± 0.11
- GATTATTTCTAAAAAGTGCATATTTAAAAATCTCCT — lower, 10 ± 0.16
- AAAAAATAGAATATGGGTACTAAAAAGATACAAACA [XGTACX_site4464] — within error, 11.1 ± 0.53
- AAATTCGTAATAATGTGTACATAACTATACATAATT [XGTACX_site1717] — within error, 11.6 ± 1.1
- ATTTATATGAAAATATGTACTTATATAAATTTATTT [XGTACX_site53] — within error, 11.2 ± 0.81
- TGGTTTATTTATTAAGTGCATAAATGCAATATATAT — lower, 9.935 ± 0.092
- TATTATATATTTAATAGTACATATAAAATAATAAGG [XGTACX_site4823] — within error, 11.1 ± 0.7
- TATACAGATGGACACACACACATAAATAAATATATA [CACACA_site4863] — within error, 11.1 ± 0.69
- TTTATTTTTAACAGTGCACACATAACTTAATTATAT [CACACA_site8681] — within error, 10.7 ± 0.22
- TACTATAACCCACATACACACAAAAAAAAAAAAAAA [CACACA_site4454] — within error, 10.1 ± 0.51
- TGTCACCTATTTTTTTGTACGTATGTCCATTTTTTT [XGTACX_site4368] — within error, 11.5 ± 0.86
- ATTACAACCACATTGACATGCAAATGTAGAGGGGGA [TGCATGCA_site694] — within error, 11.1 ± 0.71
- TATAAATATGTATATGCATGTGGAATATATAATTAA [TGCATGCA_site226] — lower, 10.03 ± 0.078
- AAATAAAACAGACACACACACACATACACAAAAAAA [CACACA_site7753] — within error, 10.2 ± 0.23
- ATATGAGTATAAAAATGTACGGAGCAACTAAATATA [XGTACX_site620] — within error, 10.7 ± 0.28
- TATTCTTACATCACCTCACACATTTAATATTCCTTA [CACACA_site4693] — lower, 9.81 ± 0.13
- GTATTATTATTTTATGCATGTACATTGAATTATATT [TGCATGCA_site34] — within error, 11.2 ± 0.81
- ATATATATATATCAGAGTACATTCTTTAAAATATAT [XGTACX_site5915] — within error, 11.4 ± 0.86
- AGATTTTGAAATTATAAAAAAATTTCACTTCATTTA [CACACA_negctrl_site888] — lower, 9.46 ± 0.18
- TTTATGTAATATACATGTACAGAATATAAAATATAT [XGTACX_site6906] — the same, 11 ± 0.54
- AAAAAATATAGATGCACACACAAAAAAACAAATTAA [CACACA_site6718] — lower, 10.1 ± 0.19
- TTTTAATTAGAAATCATACACACATATATATATATA [CACACA_site174] — lower, 9.99 ± 0.32
- ATTTTTAAAATAAATACATGCATATATTTATATGTT [TGCATGCA_site394] — lower, 9.64 ± 0.14
- TGTGTAATACATAATACACACATGTATATGTCGCAT [CACACA_site4757] — lower, 10.12 ± 0.092
- TTATTAAAGTATAACTGTACATGCGAGTAAAAGAAT [XGTACX_site7388] — within error, 11.2 ± 0.65
- TGTTCTAATATTTGTTGTACATTTACATTTCTCTCT [XGTACX_site2585] — within error, 11.1 ± 0.56
- ATAATAGAAACAAACAGTACACATACCTAAAAGGAA [XGTACX_site8647] — the same, 11 ± 0.57
- AAAAAAAAAGAGGCGTGTACATATATAATTTAAATT [XGTACX_site6827] — within error, 11.2 ± 0.59
- ATTTACATAAACGTCTGTACTAATATACAATTTTCT [XGTACX_site1700] — within error, 11.1 ± 0.71
- CATAAAATTGTATTTTGTACACATTTTGTATACATT [XGTACX_site5705] — within error, 11.4 ± 0.82
- TATATATAGAAACACACACACATATATATATATATT [CACACA_site4115] — lower, 9.89 ± 0.13
- TTACTTTAACCTTCTCGTACTTATTTACTTTATTCT [XGTACX_site7801] — within error, 10.7 ± 0.26
- ATAACATAGGCAATCACACATATCATTAAGGTGTCA [CACACA_site5233] — lower, 9.85 ± 0.028
- ACTGTGGTATAAAGTTGTACATGTTTTTATATATTT [XGTACX_site5257] — within error, 11.4 ± 0.75
- TACTTTTATATGAATACACACAGGAATATATATATG [CACACA_site3568] — lower, 10.2 ± 0.17
- TTTCAAAGGAAATGGTGTACACAATTTTTCCTTTTT [XGTACX_site2340] — within error, 11.7 ± 0.88
- TTTTATTATTCTTCTCTCTTATATATATATATATAT [CACACA_negctrl_site646] — within error, 10.1 ± 0.43

— the supplement of paper PMC11417369
